Data reported in publication PMC4336329 (PLoS ONE, 2015).
The whole screen tested about 310,000 compounds, of which about 14,000 (4.5%) showed an effect of 50% or more. Effects have a minus sign here. Some of the results follow.

Target: human ether-à-go-go-related gene (hERG) potassium channel (human, UniProt Q12809)
Assay: primary screen, population patch clamp on CHO cells stably expressing hERG
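Also: peak tail current of the secondary pulse compared with the same well before compound.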

Sequence of human ether-à-go-go-related gene (hERG) potassium channel (Q12809 whole entry, looked up): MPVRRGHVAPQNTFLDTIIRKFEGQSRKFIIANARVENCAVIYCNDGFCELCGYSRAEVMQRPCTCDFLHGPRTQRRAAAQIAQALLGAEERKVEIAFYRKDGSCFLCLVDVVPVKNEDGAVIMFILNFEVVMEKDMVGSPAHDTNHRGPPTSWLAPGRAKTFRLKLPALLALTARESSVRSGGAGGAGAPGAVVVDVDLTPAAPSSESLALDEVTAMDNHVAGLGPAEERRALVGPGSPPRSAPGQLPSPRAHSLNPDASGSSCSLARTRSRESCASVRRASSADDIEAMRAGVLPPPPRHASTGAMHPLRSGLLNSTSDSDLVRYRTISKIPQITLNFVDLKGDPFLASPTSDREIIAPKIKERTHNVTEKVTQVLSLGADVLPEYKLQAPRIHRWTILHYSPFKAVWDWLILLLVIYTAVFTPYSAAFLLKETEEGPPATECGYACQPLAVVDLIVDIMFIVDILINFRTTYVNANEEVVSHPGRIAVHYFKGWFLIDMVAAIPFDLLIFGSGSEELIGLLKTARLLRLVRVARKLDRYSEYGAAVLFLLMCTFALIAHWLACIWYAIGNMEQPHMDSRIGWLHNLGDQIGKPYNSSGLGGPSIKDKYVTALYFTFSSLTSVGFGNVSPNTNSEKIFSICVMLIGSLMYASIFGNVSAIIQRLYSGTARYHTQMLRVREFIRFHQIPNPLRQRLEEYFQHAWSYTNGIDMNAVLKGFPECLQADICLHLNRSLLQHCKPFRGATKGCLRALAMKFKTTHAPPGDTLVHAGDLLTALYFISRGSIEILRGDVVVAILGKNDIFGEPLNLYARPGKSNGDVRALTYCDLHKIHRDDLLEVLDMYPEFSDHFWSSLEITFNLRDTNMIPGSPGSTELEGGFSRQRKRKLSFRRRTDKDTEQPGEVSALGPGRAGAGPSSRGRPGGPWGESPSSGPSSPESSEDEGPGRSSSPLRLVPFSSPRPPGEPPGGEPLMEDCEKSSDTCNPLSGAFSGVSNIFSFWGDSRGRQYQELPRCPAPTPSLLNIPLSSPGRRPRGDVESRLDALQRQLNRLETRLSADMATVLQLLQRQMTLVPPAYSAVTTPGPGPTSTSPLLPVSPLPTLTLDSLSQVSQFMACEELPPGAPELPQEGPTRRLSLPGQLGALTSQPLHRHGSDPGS

First: O=C(O)C1CCCCC1C(=O)N1CCN(S(=O)(=O)c2ccc(F)cc2)CC1 (stereo not shown)
Second: O=C(Cc1ccccc1)N1CCC(C(=O)N2CCN(c3ccc(F)cc3)CC2)CC1
The “hERG current change (%, negative = inhibition) at 10uM” value of the first is higher: 8.47% for the first, -56.6% for the second.

First: COc1ccc(/C=N/NC(=O)c2ccc(NC(=O)c3cccc([N+](=O)[O-])c3)cc2)c(OC)c1
Second: CCOc1ccccc1C(=O)Nc1ccc(S(=O)(=O)Nc2cc(OC)nc(OC)n2)cc1
The “hERG current change (%, negative = inhibition) at 10uM” value of the first is higher: 3.23% for the first, -3.54% for the second.

Compared with COc1ccc(C)cc1Nc1n[n+](-c2ccccc2)c(-c2cc(OC)c(OC)cc2Br)s1.[Cl-], COc1ccc(CCNC(=O)CSC2=Nc3ccccc3C3=NC(C(C)C)C(=O)N23)cc1OC (stereo not shown) is higher in “hERG current change (%, negative = inhibition) at 10uM” value: -48.9% for the first, 14.9% for the second.

First: COc1ccc(NC(=O)CSc2nncc(=O)n2N)cc1OC
Second: COc1ccc(C(=O)OCC(=O)NC(=O)NC(C)C)cc1OC
The “hERG current change (%, negative = inhibition) at 10uM” value of the first is higher: 15.5% for the first, 10.9% for the second.

Compared with O=C(CSC1=NS(=O)(=O)c2cc(Cl)ccc2N1)Nc1ccccc1F, CN(CC(=O)Nc1ccccc1Cl)CC(=O)Nc1c(F)cccc1F is higher in “hERG current change (%, negative = inhibition) at 10uM” value: 5.03% for the first, 14.4% for the second.

Compared with Cc1ccccc1NS(=O)(=O)c1ccc(C)c(C(N)=O)c1, Cc1ccc(S(=O)(=O)NNC(=O)c2ccccc2O)cc1 is higher in “hERG current change (%, negative = inhibition) at 10uM” value: -3.94% for the first, 4.23% for the second.

Going from CCCn1nc2cc(C(=O)NCc3ccc(OC(F)(F)F)cc3)ccc2c1OCC to COc1ccc(CNC(=O)c2cc(C3CC3)on2)cc1, the “hERG current change (%, negative = inhibition) at 10uM” value falls from 14.3% to 1.82%.

First: Cl.Clc1cccc(-c2ccc(CNCc3ccccn3)o2)c1
Second: O=C(NCc1c(O)ccc2ccccc12)c1ccccc1
The “hERG current change (%, negative = inhibition) at 10uM” value of the first is lower: -16.2% for the first, 12% for the second.

Compared with CCn1c(=O)n(CC(=O)N(C)Cc2ccccc2)c(=O)c2ccccc21, Cn1c(=O)c2[nH]c(CN(Cc3ccccc3)Cc3ccccc3)nc2n(C)c1=O is higher in “hERG current change (%, negative = inhibition) at 10uM” value: -9.11% for the first, -1.87% for the second.

Going from CCOc1ccccc1CNC(=O)c1cc2oc3ccccc3c2n1C to O=C(Cc1ccccc1C(=O)O)Nc1cccc2ccccc12, the “hERG current change (%, negative = inhibition) at 10uM” value rises from -6.27% to 16.5%.

Going from COc1cc2[nH]c(=O)n(Cc3ccc(C(=O)NC4CCN(Cc5ccccc5)CC4)cc3)c(=O)c2cc1OC to O=C(Cc1ccccc1)N1CCN(Cc2ccc(F)cc2)CC1.O=C(O)C(=O)O, the “hERG current change (%, negative = inhibition) at 10uM” value falls from 17.6% to 2.38%.

Going from Cc1cc(C)nc(/N=C(\N)Nc2cc([N+](=O)[O-])ccc2C)n1 to CN(C)S(=O)(=O)c1cccc(NC(=O)c2ccc(-n3cncn3)c([N+](=O)[O-])c2)c1, the “hERG current change (%, negative = inhibition) at 10uM” value rises from -49% to -18%.

Going from O=C(Nc1nncs1)Oc1ccccc1 to Cc1nc(Cl)sc1C(=O)Nc1cccc2ccccc12, the “hERG current change (%, negative = inhibition) at 10uM” value falls from 8.98% to -11.3%.

First: NC(N)=NCC(O)CN(c1ccccc1)c1ccccc1.O=S(=O)(O)O (stereo not shown)
Second: O=C(CNC(=O)C(c1ccccc1)c1ccccc1)N/N=C\c1ccc(C(=O)O)cc1
The “hERG current change (%, negative = inhibition) at 10uM” value of the first is lower: -1.09% for the first, 15% for the second.

Going from CC1CCCN(C(=O)CCS(=O)(=O)c2ccc3c(c2)n(C)c(=O)c(=O)n3C)C1 (stereo not shown) to CCn1cc(C(=O)N2CCN(C3CCCCC3)CC2)c2cc(OC)c(OC)cc2c1=O, the “hERG current change (%, negative = inhibition) at 10uM” value falls from 1.25% to -20.6%.

First: CCSc1nnc(NC(=O)C(C)Sc2nc3ccccc3[nH]2)s1 (stereo not shown)
Second: COC(=O)CNC(=O)CSc1nc2c(sc(=S)n2-c2ccccc2)c(=O)[nH]1
The “hERG current change (%, negative = inhibition) at 10uM” value of the first is lower: -3.15% for the first, 19% for the second.

First: CN1C2CCC1CC(NC(=O)c1cc(Cl)cc3[nH]cnc13)C2 (stereo not shown)
Second: O=C(NC1CCCC1)c1cc(-c2ccccc2Cl)on1
The “hERG current change (%, negative = inhibition) at 10uM” value of the first is lower: 4.12% for the first, 10.5% for the second.

Going from O=C1c2ccccc2C(=O)C12OC(c1ccccc1)C1(C(=O)c3ccccc3C1=O)C2c1ccc([N+](=O)[O-])cc1 (stereo not shown) to CCC(C)NS(=O)(=O)c1ccc(NC(=O)C(Sc2ccccc2)c2ccccc2)cc1 (stereo not shown), the “hERG current change (%, negative = inhibition) at 10uM” value falls from 20.5% to 2.72%.

Compared with Cc1c(C(=O)OCC(=O)N2CC(C)OC(C)C2)oc2ccc(Br)cc12 (stereo not shown), Cc1cc(C(=O)OCC(=O)N2CC(C)CC(C)C2)c(C)o1 (stereo not shown) is higher in “hERG current change (%, negative = inhibition) at 10uM” value: -19.6% for the first, 3.26% for the second.

First: CCOC(=O)CSc1nc2ccccc2c(=O)n1CCN1CCOCC1
Second: O=C(CCCN1C(=O)/C(=C/c2ccccc2)SC1=S)N1CCOCC1
The “hERG current change (%, negative = inhibition) at 10uM” value of the first is lower: -50.3% for the first, -30.1% for the second.

First: COC(=O)c1ccccc1NC(=O)COc1ccc(S(=O)(=O)N2CCCC2)cc1C
Second: CCOC(=O)c1ccccc1NC(=O)COC(=O)CN1C(=O)C2CC=CCC2C1=O (stereo not shown)
The “hERG current change (%, negative = inhibition) at 10uM” value of the first is higher: 8.37% for the first, -2.8% for the second.

First: CCn1c(CSCc2ccc(C)cc2)nnc1SCC(=O)N1CCN(c2ccccc2)CC1
Second: COc1ccc(-c2ccnc3nc(N4CCN(c5ccccc5)CC4)nn23)cc1
The “hERG current change (%, negative = inhibition) at 10uM” value of the first is lower: -45.4% for the first, -22.2% for the second.

First: CCOc1ccc(NC(=O)CC(C)S(=O)(=O)c2ccc3c(c2)NC(=O)CO3)cc1 (stereo not shown)
Second: CCOc1ccc(NC2=CC(=O)CC(c3ccco3)C2)cc1 (stereo not shown)
The “hERG current change (%, negative = inhibition) at 10uM” value of the first is higher: 5.66% for the first, -12.5% for the second.

First: CCCCN(CC)CCNC(=O)c1cc2c(=O)n(CC)c3ccccc3c2s1
Second: O=C(O)CCCCCNC(=O)CCn1cnc2ccccc2c1=O
The “hERG current change (%, negative = inhibition) at 10uM” value of the first is lower: -35.5% for the first, 5.02% for the second.

First: CC(=O)Nc1ccc(Cc2nc3c([nH]2)c(=O)n(C)c(=O)n3C)cc1
Second: CCN1CCN(c2nc3c(c(=O)n(C)c(=O)n3C)n2Cc2cccc3ccccc23)CC1
The “hERG current change (%, negative = inhibition) at 10uM” value of the first is higher: 21% for the first, -24.1% for the second.

Going from COc1ccccc1C(=O)N/C(=C\c1cn(C)c2ccccc12)C(=O)NCCCN1CCOCC1 to O=C(CCn1c(=O)oc2ccccc21)NCCCN1CCN(c2ccc(F)cc2)CC1, the “hERG current change (%, negative = inhibition) at 10uM” value falls from -8.52% to -66.2%.

First: Nc1nc(-c2ccc(Cl)cc2)nn1C(=O)c1cccs1
Second: O=C(NNC(=O)c1ccc(=O)[nH]c1)c1ccc(NS(=O)(=O)c2cccs2)cc1
The “hERG current change (%, negative = inhibition) at 10uM” value of the first is higher: 14.1% for the first, -5.25% for the second.

Going from CCOC(=O)c1[nH]c2ccc(OCC)cc2c1NC(=O)CN1CCC2(CC1)OCCO2 to CCOC(=O)Nc1ccc2c(c1)N(C(=O)CN1CCN(C)CC1)c1ccccc1CC2.Cl, the “hERG current change (%, negative = inhibition) at 10uM” value rises from -25.7% to -1.95%.

First: O=C(O)CNS(=O)(=O)Cc1ccccc1
Second: O=C(COCc1ccccc1)N[C@@H](Cc1ccc(O)cc1)C(=O)O
The “hERG current change (%, negative = inhibition) at 10uM” value of the first is higher: 26.9% for the first, 9.11% for the second.

First: NC(N)=NS(=O)(=O)c1ccc(NC(=S)Nc2ccc(F)cc2)cc1
Second: O=C(CCC(=O)Nc1ccc(F)cc1)N/N=C/c1cccnc1
The “hERG current change (%, negative = inhibition) at 10uM” value of the first is lower: 16.7% for the first, 17.8% for the second.

Going from Cc1cc(Cl)c(S(=O)(=O)Nc2ccon2)cc1OCC(=O)NC1CCCCC1 to O=C(O)C1CCN(C(=O)COc2ccc3c4c(c(=O)oc3c2)CCC4)CC1, the “hERG current change (%, negative = inhibition) at 10uM” value falls from 12.4% to 5.34%.

First: Cc1ccc(OCc2nnc(SCC(=O)Nc3ccc4c(c3)OCO4)n2C)cc1
Second: CCOC(=O)Cc1csc(NC(=O)CSc2nnc(C3CC3)n2C)n1
The “hERG current change (%, negative = inhibition) at 10uM” value of the first is lower: -15.7% for the first, 1.31% for the second.

Compared with COC(=O)[C@H]1C[C@H]1[C@@H](NC(=O)c1ccc[nH]1)c1ccccc1, O=C(NCc1cccnc1)c1cccc(NC(=O)c2ccco2)c1 is higher in “hERG current change (%, negative = inhibition) at 10uM” value: -12.4% for the first, -1.86% for the second.

First: CCOC(=O)c1cc2c(=O)n3cccc(C)c3nc2n(CCCOC)c1=NC(=O)c1cccnc1
Second: CCOC(=O)c1c(C)[nH]c(C)c1C(=O)COC(=O)c1nc2nccc(C)n2n1
The “hERG current change (%, negative = inhibition) at 10uM” value of the first is lower: -78.6% for the first, 24.8% for the second.

Compared with Cc1cc(=O)n2c3ccccc3n(C)c2n1, Cc1n[nH]c(=O)nc1N1CCN(c2ccccc2)CC1 is lower in “hERG current change (%, negative = inhibition) at 10uM” value: 9.7% for the first, 3.06% for the second.

Going from O=C(CSc1nnc(COc2cccc3cccnc23)o1)N1CCc2ccccc21 to O=C(CSc1nc2nn(-c3ccccc3)c(=O)c-2c2n1CCCCC2)NCCCc1ccccc1, the “hERG current change (%, negative = inhibition) at 10uM” value falls from 17.1% to -63.1%.

Compared with COc1cccc(C=O)c1OCCN1C(=O)c2ccccc2C1=O, CCc1nnc(NS(=O)(=O)c2ccc(N/C=C\C(=O)c3ccc4ccccc4c3)cc2)s1 is higher in “hERG current change (%, negative = inhibition) at 10uM” value: 4% for the first, 5.21% for the second.

First: O=C(NC1CCCc2c1cnn2-c1ccccc1F)c1ccccc1N1CCOCC1 (stereo not shown)
Second: Cc1ccc(NC2CC(=O)N(c3ccc(N4CCCCC4)cc3)C2=O)cc1 (stereo not shown)
The “hERG current change (%, negative = inhibition) at 10uM” value of the first is lower: -36.3% for the first, 21.8% for the second.

Going from CCC(c1ccc(O)cc1)C(CC)c1ccc(O)cc1 (stereo not shown) to O=C(c1ccc(COc2ccc(F)cc2)o1)n1cccn1, the “hERG current change (%, negative = inhibition) at 10uM” value falls from 6.02% to 4.97%.

First: O=C(CSc1nc(-c2ccccc2)c(-c2ccccc2)[nH]1)N1CCN(S(=O)(=O)c2ccccc2)CC1
Second: O=C(c1cc2nc(-c3ccccc3)cc(-c3ccccc3)n2n1)N1CCN(C(=O)c2ccco2)CC1
The “hERG current change (%, negative = inhibition) at 10uM” value of the first is higher: 1.73% for the first, -56.9% for the second.

Compared with COc1ccc(SCc2noc(C(=O)NCC3CCCO3)c2C(=O)O)cc1 (stereo not shown), CCC(=O)Nc1cccc2cccnc12 is higher in “hERG current change (%, negative = inhibition) at 10uM” value: 9.57% for the first, 16.7% for the second.

Going from CC1CCCC(C)N1/N=C/c1ccc(C#N)cc1 (stereo not shown) to CCN1CCCCC(=N/O)/C(=N/O)CCCC1, the “hERG current change (%, negative = inhibition) at 10uM” value rises from -15.2% to 25.5%.

For Cc1nc(Cl)c(C(=O)NC(C)(C)C)c(C)c1Cl, the “hERG current change (%, negative = inhibition) at 10uM” value was 4.1%.
